Our source for the self-cleavage values is the RNAGym collection of RNA variant scans (doi:10.7554/elife.90254).

Read counts are not given, so values of variants with three or more changes are uncertain.

The labels stand for the following.
B1: OR4K15 (parent)
chain: GUUAACGGUCAUAGGCCAUGGAAACUAGGAGCACCAUUUCGCUGCCAGUGAAGAAAUGAACAAAGAAAAUCUGGGCCAGGCAGGCAUCAAAAGAAAUAGUCUUGCGCUCAACCAGAAAGUCUGUAAUCAUUUUAAGGGUA

The variants in the data set derive from B1. Nature of the data set: self-cleavage, relative activity (ratio to wild type); higher = more cleavage; in vitro, sequencing; the parent is a self-cleaving ribozyme.
On to GUUAACGGUCACAGGCCAUGGAAACUAGGAGCACCAUUUCGCUGCCAGUGAAGAAAUGAACAAAGAGAAUCUGGGCCAGGCAGGCAUCAAAAGAAAUAGUCUUGCGCCCAACCAGAAAGUCUGUAAUCAUUUUAAGGGUA, for which the self-cleavage was found to be 0.03. For GUUAACGGUCACAGGCCAUGGAAACUAGGGGCACCAUUUCGCUGCCAGUGAAGAGAUGAACAAAGAAAAUCUGGGCCAGGCAGGCAUCAAAGGAAAUAGUCUUGCGCCCAACCAGAAAGUCUGUAAUCAUUUUAAGGGUA, the self-cleavage was found to be 0.07.

On to GUUAACGGUCACAGGCCAUGGAAACUAGGGGCACCAUUUCGCUGCCAGUGAUGAAAUGAACAAAGAAAAUCUGGGCCAGGCAGGCAUCAAAAGAAAUAGUCUUGCGCUCAACCAGAAAGUCUGUAAUCAUUUUAAGGGUA, for which the self-cleavage was determined as 0.87.

On to GUUAACGGUCACAGGCCAUGGAGACUAGGAGCACCAUUUCGCUGCCAGUGAAGAAAUGAACAAAGAGAAUCUGGGCCUGGCAGGCAUCAAAAGAAAUAGUCUUGCGCUCAACCAGAAAGUCUGUAAUCAUUUUAAGGGUA, for which the self-cleavage was found to be 0.35. Take GUUAACGGUCACAGGCCAUGGAAACUAGGAGCACCAUUUCGCUGCCAGUGAAGAAAUGAACGAAGGAAAUCUGGGCCAGGCAGGCAUCAAAAGAAAUAGUCUUGCGCUCAACCUGAAAGUCUGUAAUCAUUUUGAGGGUA: the self-cleavage came to 0.12. Turning to GUUAACGGUCACAGGCCAUGGAAACUAGGAGCACCAUUUCGCUGCCAGUGAAGAAAUGAGCAAAGAAAAUCUGGGCCAGGCAGGCGUCAGAAGAAAUAGUCUUGCGCUCAACCAGAAAGUCUGUGAUCAUUUUAAGGGUA, the self-cleavage worked out at 0.13. GUUAACGGUCACAGGCCAUGGAAGCUAGGAGCACCAUUUCGCUGCCAGUGAGGAGAUGUACAAAGAAAAUCUGGGCCAGGCAGGCAUCAAGGGAAAUAGUCUUGCGCUCAACCAGAAAGUCCGUAAUCAUUUUAAGGGUA: the self-cleavage came to 0.75.

With GUUAACGGUCACAGGCCAUGGAAACUAGGAGCACCAUUUCGCUGCCAGUGAAGAAAUGGACAAAGAAAAUCUGGGCCAGGCAGGCAUCAAAAGAAAUAGUCUUGCGCUCAACCAGAAAGUCUGUAGUCAUUUUAAGGGUA, the self-cleavage worked out at 1.2. On to GUUAACGGUCACAGGCCAUGGAAACUAGGGGCACCAUUUCGCUGCCAGUGAAGAAAUGAACAAAGAAAAUCUGGGCCAGGCAGGCAUCAGAAGAAAUAGUCUUGCGCUCAACCAGGAAGUCUGUAAUCAUUUUAAGGGCA, for which the self-cleavage was 0.56.

As to GUUAACGGUCACAGGCCAUGGAAACUAGGAGCACCAUUUCGCUGCCAGUGAGGAAAAGAACAAAGAAAAUCUGGGCCGGGCAGGCAUCAAAAGAAAUAGUCUUGCGCUCAACCAGAAAGUCUGUAUUCAUUCUAAGGGUA, the self-cleavage was 0.24. For the variant GUUAACGGUCACAGGCCAUGGAAACUAGGAGCACCAUUUCGCUGCCAGUGAAGCAAUGAACAAAGAAAAUCUGGGCCAGGCAGGCAUCAAAGGAAAUAGUCUUGCGCUCAACCAGAAAGUCUGUAAUCAUUUUAAGGGUA, the self-cleavage was found to be 0.81.

In the case of GUUAACGGUCACAGGCCAUGGAAACUAGGAGCACCAUUUCGCUGCCAGUGAGGAAAUGAACAAAGAAAAUCUGGGCCAGGCAGGCAUCAAAAGAAAUAGUCUUGCGCUCAACCAGAAUGUCUGUAAUCUUUUUAAGGGUA, the self-cleavage came out at 0.61. As to GUUAACGGUCACAGGCCAUGGAAACUAGGAGCACCAUUUCGCUGCCAGUGAAGAAAUGUACAAAGAAAAUCUGGGCCAGGCAGGCAUCAAAAGAAAUAGUCUUGCGCCCAACCAGAAAGUCUGUAAUCGUUUUAAGGGUA, the self-cleavage came out at 0.02.

GUUAACGGUCACAGGCCAUGGAAACUAGGAGCACCAUUUCGCUGCCAGUGAAGAAAUGAACAGAGAAAAUCUGGGCCAGGCAGGCAUCAAAAGAAGUAGUCUUGCGCUCAACCAGAAAGUCUGUAAUCAUUUUAAGGGUA: the self-cleavage was 1.56. Regarding GUUAACGGUCACAGGCCAUGGAAACUAGGAGCACCAUUUCGCUGCCAGUGAGGAAAUGAACAAAGAAAAUCUGGGCCAGGCAGGCAUCAAAAGAAAUAGCCUUGCGCUCAACCAGAAAGUCUGUAAUCAUUUUAAGGGUA, the self-cleavage was 2.5. Turning to GUUAACGGUCACAGGCCAUGGAAGCUAGGAGCACCACUUCGCUGCCAGUGAAGAAAUGAACAAAGAAAAUCUGGGCCAGGCAGGCAUCAAAAGAAAUAGUCUUGCGCUCAACCAGAAAGUCUGUAAUCAUUUUAAGGGUA, the self-cleavage amounted to 0.82. Then GUUAACGGUCACAGGCCAUGGAAACUAGGGGCACCAUUUCGCUGCCAGUGAAGAAAUGAACAAAGAAAAUCUGGGCCAGGCAGGCAUCAAAAGAAAUAGUCUCGCGCUCAGCCAGAAAGUCUGUAAUCAUUUUAAGGGUA, with 0; and GUUAACGGUCACAGGCCAUGGAGACUAGAAGCACCAUUUCGCUGCCAGUGAAGAGAUGAACAAAGAAAAUCUGGGUCAGGCAGGCAUCAAAAGAAAUAGUCUUGCGCUCAACCAGAAAGUCUGUAAUCAUUUUAAGGGUA, with 0.04. Consider GUUAACGGUCACAGGCCAUGGAAACUAGGAGCACCAUUUCGCUGCCAGUGAGGAAAUGGACAAAGAGAAUCUGGGCCAGGCAGGCAUCAAAAGAAAUAGUCUUGCGCUCAACCAGAAAAUCUGUAAUCAUUUUAAGCGUA, for which the self-cleavage is 1.05. GUUAACGGUCACAGGCCAUGGAAACUAGGGGCACCAUUUCGCUGCCAGUGAAGAAAUGAACAAAGAAAAUCUGGGCCAGGCAGGCAUCAAAAGAAAUAGUCUUGCGCUCAACCAGAAAGUCUGUAACCAUUUUAAGGGUA: the self-cleavage worked out at 1.11.
